# According to article PMC6053597, “Coupling of polymerase and carrier lipid phosphatase prevents product inhibition in peptidoglycan synthesis” (The Cell Surface, 2018):
# These are yes or no findings as the source states them, for the method shown. Some binding calls cover weakened binding; strength is not graded here. Sequences can lack the tags named with a protein.
# T1: PgpB-ht (C-terminal His6-tagged version of PgpB) (E. coli) (UniProt P0A924)
# T1 sequence: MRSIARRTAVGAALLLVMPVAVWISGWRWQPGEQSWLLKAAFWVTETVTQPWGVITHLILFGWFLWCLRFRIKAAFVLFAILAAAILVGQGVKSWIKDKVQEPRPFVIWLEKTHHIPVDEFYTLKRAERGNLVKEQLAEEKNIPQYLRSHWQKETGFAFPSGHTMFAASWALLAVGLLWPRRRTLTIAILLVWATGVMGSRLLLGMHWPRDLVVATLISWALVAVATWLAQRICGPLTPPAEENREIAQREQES
# T2: ht-BacA (N-terminal His6-tagged version of BacA) (E. coli) (UniProt P60932)
# T2 sequence: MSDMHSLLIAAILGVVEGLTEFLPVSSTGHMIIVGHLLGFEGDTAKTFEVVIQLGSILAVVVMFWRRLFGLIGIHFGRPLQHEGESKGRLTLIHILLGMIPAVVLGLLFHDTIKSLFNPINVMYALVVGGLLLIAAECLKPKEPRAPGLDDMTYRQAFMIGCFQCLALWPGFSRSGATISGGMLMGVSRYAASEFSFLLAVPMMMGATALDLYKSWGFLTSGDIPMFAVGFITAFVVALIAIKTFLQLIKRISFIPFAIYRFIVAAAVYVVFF
# T3: PBP1A (Penicillin-binding protein 1A), untagged (E. coli) (UniProt P02918)
# T3 sequence: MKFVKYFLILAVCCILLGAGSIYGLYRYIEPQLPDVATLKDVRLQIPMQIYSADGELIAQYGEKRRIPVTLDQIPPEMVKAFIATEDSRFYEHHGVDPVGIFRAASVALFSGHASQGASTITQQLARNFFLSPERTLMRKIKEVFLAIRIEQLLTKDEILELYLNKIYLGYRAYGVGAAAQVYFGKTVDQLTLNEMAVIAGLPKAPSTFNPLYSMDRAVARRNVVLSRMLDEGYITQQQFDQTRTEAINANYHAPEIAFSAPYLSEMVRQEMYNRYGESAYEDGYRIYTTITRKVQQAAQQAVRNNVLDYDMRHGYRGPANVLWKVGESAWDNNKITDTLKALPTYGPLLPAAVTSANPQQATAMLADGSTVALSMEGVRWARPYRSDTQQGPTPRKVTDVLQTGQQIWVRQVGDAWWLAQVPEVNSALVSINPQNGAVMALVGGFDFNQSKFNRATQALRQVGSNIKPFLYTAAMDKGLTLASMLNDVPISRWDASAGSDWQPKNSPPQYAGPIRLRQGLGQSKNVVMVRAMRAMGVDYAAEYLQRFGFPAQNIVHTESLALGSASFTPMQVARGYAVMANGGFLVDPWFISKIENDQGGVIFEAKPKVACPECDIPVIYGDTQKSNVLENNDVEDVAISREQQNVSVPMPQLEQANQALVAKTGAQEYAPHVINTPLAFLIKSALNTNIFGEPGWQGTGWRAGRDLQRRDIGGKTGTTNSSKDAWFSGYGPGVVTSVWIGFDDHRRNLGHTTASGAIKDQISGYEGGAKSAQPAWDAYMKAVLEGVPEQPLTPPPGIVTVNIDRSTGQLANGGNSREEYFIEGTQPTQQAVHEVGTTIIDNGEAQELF
# What was measured:
# [1] = target: T1, PgpB-ht (C-terminal His6-tagged version of PgpB) (E. coli); assay: pull-down; as a1 but without cross-linker; His-tagged phosphatase captured on Ni-NTA beads; wash buffer with 20 mM imidazole; SDS-PAGE, Coomassie; both purified
# [2] = target: T2, ht-BacA (N-terminal His6-tagged version of BacA) (E. coli); assay: as above
# [3] = target: T1, PgpB-ht (C-terminal His6-tagged version of PgpB) (E. coli); assay: pull-down + cross-linking; His-tagged phosphatase (3 μM PgpB-ht or 5 μM ht-BacA) mixed with 1.5 or 2.0 μM untagged PBP in 10 mM HEPES/NaOH, 10 mM MgCl2, 300 mM NaCl, 0.1% Triton X-100, pH 7.5; 0.2% formaldehyde 10 min 37 °C; captured on Ni-NTA beads; wash with 500 mM NaCl, 50 mM imidazole; SDS-PAGE, Coomassie; both purified
# [4] = target: T2, ht-BacA (N-terminal His6-tagged version of BacA) (E. coli); assay: as above
# [5] = target: T3, PBP1A (Penicillin-binding protein 1A), untagged (E. coli); assay: SPR; PBP1A or PBP1B covalently immobilised via their TPase active site on a sensor chip with bound ampicillin; PgpB-ht injected at 0.125-2 μM in 10 mM Tris/maleate pH 7.5, 150 mM NaCl, 5 mM imidazole, 5 mM β-mercaptoethanol, 0.05% DDM; 25 °C, 75 μL/min; equilibrium response fitted to a 1:1 model; apparent KD; both purified
binding [1],binding [2],binding [4],binding [5],Binder,binding [3]
binds,binds,binds,,"PBP1B (Penicillin-binding protein 1B), untagged (enzyme, UniProt P02919 58-804) KPRGKRGWLWLLLKLAIVFAVLIAIYGVYLDQKIRSRIDGKVWQLPAAVYGRMVNLEPDMTISKNEMVKLLEATQYRQVSKMTRPGEFTVQANSIEMIRRPFDFPDSKEGQVRARLTFDGDHLATIVNMENNRQFGFFRLDPRLITMISSPNGEQRLFVPRSGFPDLLVDTLLATEDRHFYEHDGISLYSIGRAVLANLTAGRTVQGASTLTQQLVKNLFLSSERSYWRKANEAYMALIMDARYSKDRILELYMNEVYLGQSGDNEIRGFPLASLYYFGRPVEELSLDQQALLVGMVKGASIYNPWRNPKLALERRNLVLRLLQQQQIIDQELYDMLSARPLGVQPRGGVISPQPAFMQLVRQELQAKLGDKVKDLSGVKIFTTFDSVAQDAAEKAAVEGIPALKKQRKLSDLETAIVVVDRFSGEVRAMVGGSEPQFAGYNRAMQARRSIGSLAKPATYLTALSQPKIYRLNTWIADAPIALRQPNGQVWSPQNDDRRYSESGRVMLVDALTRSMNVPTVNLGMALGLPAVTETWIKLGVPKDQLHPVPAMLLGALNLTPIEVAQAFQTIASGGNRAPLSALRSVIAEDGKVLYQSFPQAERAVPAQAAYLTLWTMQQVVQRGTGRQLGAKYPNLHLAGKTGTTNNNVDTWFAGIDGSTVTITWVGRDNNQPTKLYGASGAMSIYQRYLANQTPTPLNLVPPEDIADMGVDYDGNFVCSGGMRILPVWTSDPQSLCQQSEMQQQPS",binds
,,,no binding (tested: 2 µM),"PgpB-ht (C-terminal His6-tagged version of PgpB) (enzyme, E. coli, PgpB, C55-PP pyrophosphatase (PAP2 family) of E. coli; amplified by PCR from genomic DNA of E. coli BW25113 and cloned into pET28a(+) (pET28a-pgpB); Purified according to Touzé et al., 2008a with modifications; also called oligohistidine tagged PgpB; source: E. coli C43(DE3), membrane fraction solubilised in DDM, purified (Ni-NTA); not shown: His6, C-terminal, kept) MRSIARRTAVGAALLLVMPVAVWISGWRWQPGEQSWLLKAAFWVTETVTQPWGVITHLILFGWFLWCLRFRIKAAFVLFAILAAAILVGQGVKSWIKDKVQEPRPFVIWLEKTHHIPVDEFYTLKRAERGNLVKEQLAEEKNIPQYLRSHWQKETGFAFPSGHTMFAASWALLAVGLLWPRRRTLTIAILLVWATGVMGSRLLLGMHWPRDLVVATLISWALVAVATWLAQRICGPLTPPAEENREIAQREQES",
,,,,"PBP1A (Penicillin-binding protein 1A), untagged (enzyme, UniProt P02918 1-850) MKFVKYFLILAVCCILLGAGSIYGLYRYIEPQLPDVATLKDVRLQIPMQIYSADGELIAQYGEKRRIPVTLDQIPPEMVKAFIATEDSRFYEHHGVDPVGIFRAASVALFSGHASQGASTITQQLARNFFLSPERTLMRKIKEVFLAIRIEQLLTKDEILELYLNKIYLGYRAYGVGAAAQVYFGKTVDQLTLNEMAVIAGLPKAPSTFNPLYSMDRAVARRNVVLSRMLDEGYITQQQFDQTRTEAINANYHAPEIAFSAPYLSEMVRQEMYNRYGESAYEDGYRIYTTITRKVQQAAQQAVRNNVLDYDMRHGYRGPANVLWKVGESAWDNNKITDTLKALPTYGPLLPAAVTSANPQQATAMLADGSTVALSMEGVRWARPYRSDTQQGPTPRKVTDVLQTGQQIWVRQVGDAWWLAQVPEVNSALVSINPQNGAVMALVGGFDFNQSKFNRATQALRQVGSNIKPFLYTAAMDKGLTLASMLNDVPISRWDASAGSDWQPKNSPPQYAGPIRLRQGLGQSKNVVMVRAMRAMGVDYAAEYLQRFGFPAQNIVHTESLALGSASFTPMQVARGYAVMANGGFLVDPWFISKIENDQGGVIFEAKPKVACPECDIPVIYGDTQKSNVLENNDVEDVAISREQQNVSVPMPQLEQANQALVAKTGAQEYAPHVINTPLAFLIKSALNTNIFGEPGWQGTGWRAGRDLQRRDIGGKTGTTNSSKDAWFSGYGPGVVTSVWIGFDDHRRNLGHTTASGAIKDQISGYEGGAKSAQPAWDAYMKAVLEGVPEQPLTPPPGIVTVNIDRSTGQLANGGNSREEYFIEGTQPTQQAVHEVGTTIIDNGEAQELF","no binding (tested: 1.5 or 2.0 μM PBP1A, 3 μM PgpB-ht)"
